23 molecules from the supplement of paper PMC4604168 (melanoma cell lines) can be followed below.

Common to all, as to experiment: cell count relative to DMSO control; melanoma cells; higher = more viable cells
What all share (details): library dose: standard library concentration; 72 h

The test system of test [1] is A101D.
Test [2] has as its system A2058.
Test [3] relates to A375.
Test [4] deals with 501Mel.

SMILES strings stand for the structures. This is one part of the list. Repeats are few or missing, and single values can be far off.
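Further: cells treated in 1,536-well plates, then fixed and DAPI-stained, with nuclei counted from automated high-throughput microscope images.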

Consider `Cc1cc(Nc2cc(N3CCN(C)CC3)nc(Sc3ccc(NC(=O)C4CC4)cc3)n2)n[nH]1` [Tozasertib] + O=C(O)c1ccc2c(c1)nc(Nc1cccc(Cl)c1)c1ccncc12 [CX4945] (first compound 0.03 µM, partner dose 2 µM), for which the cell count in test [1] came to 76.4%; in test [2], 67.9%; in test [3], 87.5%.

In the case of `Cc1cc(Nc2cc(N3CCN(C)CC3)nc(Sc3ccc(NC(=O)C4CC4)cc3)n2)n[nH]1` [Tozasertib] + O=S(=O)(c1ccccc1)N(CC(F)(F)F)c1ccc(C(O)(C(F)(F)F)C(F)(F)F)cc1 [T0901317] (first compound 0.03 µM, partner dose 7 µM), the cell count in test [4] came to 65.7%; in test [1] it was 78%; in test [2], 86.3%; in test [3], 102%.

`CC[C@]1(O)C[C@H]2CN(CCc3c([nH]c4ccccc34)[C@@](C(=O)OC)(c3cc4c(cc3OC)N(C=O)[C@H]3[C@@](O)(C(=O)OC)[C@H](OC(C)=O)[C@]5(CC)C=CCN6CC[C@]43[C@@H]65)C2)C1` [vincristine] + C=CCn1c(=O)c2cnc(Nc3ccc(N4CCN(C)CC4)cc3)nc2n1-c1cccc(C(C)(C)O)n1 [MK1775] (first compound 0.0005 µM, partner dose 0.1 µM): the cell count in test [1] stood at 39.3%; in test [2], 12.1%; in test [3], 55.9%.

Turning to `Cc1cc(Nc2cc(N3CCN(C)CC3)nc(Sc3ccc(NC(=O)C4CC4)cc3)n2)n[nH]1` [Tozasertib] + CS(=O)(=O)CCNCc1ccc(-c2ccc3ncnc(Nc4ccc(OCc5cccc(F)c5)c(Cl)c4)c3c2)o1 [lapatinib] (first compound 0.03 µM, partner dose 4 µM), the values for the cell count in test [1], in test [2] and in test [3] were 70.8%, 66.4% and 145%, respectively.

Turning to `N#CC[C@H](C1CCCC1)n1cc(-c2ncnc3[nH]ccc23)cn1` [ruxolitinib] + NCC(=O)Nc1ccc(-n2nc(C(F)(F)F)cc2-c2ccc3c(ccc4ccccc43)c2)cc1 [OSU03012] (first compound 5 µM, partner dose 5 µM), the cell count in test [1] amounted to 68.1%; in test [2] it was 61.6%; in test [3], 52%.

`N#CC[C@H](C1CCCC1)n1cc(-c2ncnc3[nH]ccc23)cn1` [ruxolitinib] + Cc1ccc(Nc2nccc(N(C)c3ccc4c(C)n(C)nc4c3)n2)cc1S(N)(=O)=O [Pazopanib] (first compound 5 µM, partner dose 2 µM): the cell count in test [1] was found to be 95%; in test [2], 78.4%; in test [3] it was 104%.

Take `CC[C@]1(O)C[C@H]2CN(CCc3c([nH]c4ccccc34)[C@@](C(=O)OC)(c3cc4c(cc3OC)N(C=O)[C@H]3[C@@](O)(C(=O)OC)[C@H](OC(C)=O)[C@]5(CC)C=CCN6CC[C@]43[C@@H]65)C2)C1` [vincristine] + O=C(CCCCCCC(=O)Nc1ccccc1)NO [vorinostat] (first compound 0.0005 µM, partner dose 0.4 µM): the cell count in test [1] was 56%; in test [2] it was 97.6%; in test [3] it was 116%.

Regarding `Cc1cc(Nc2cc(N3CCN(C)CC3)nc(Sc3ccc(NC(=O)C4CC4)cc3)n2)n[nH]1` [Tozasertib] + CN(c1ncccc1CNc1nc(Nc2ccc3c(c2)CC(=O)N3)ncc1C(F)(F)F)S(C)(=O)=O [PF562271] (first compound 0.03 µM, partner dose 0.4 µM), the cell count in test [1] amounted to 87.4%; in test [2], 68.4%; in test [3], 63.5%.

`Cc1cc(Nc2cc(N3CCN(C)CC3)nc(Sc3ccc(NC(=O)C4CC4)cc3)n2)n[nH]1` [Tozasertib] + O=c1[nH]nc(Sc2ncc([N+](=O)[O-])s2)n1-c1ccc2c(c1)OCCO2 [BI78D3] (first compound 0.03 µM, partner dose 1 µM): the results for the cell count in test [1], in test [2] and in test [3] were 82%, 107% and 104%, respectively.

As for `Cc1cc(Nc2cc(N3CCN(C)CC3)nc(Sc3ccc(NC(=O)C4CC4)cc3)n2)n[nH]1` [Tozasertib] + O=C(CCCCCCC(=O)Nc1ccccc1)NO [vorinostat] (first compound 0.03 µM, partner dose 0.4 µM), the cell count in test [1] amounted to 78.7%; in test [2] it was 80.6%; in test [3], 119%.

In the case of `CC[C@]1(O)C[C@H]2CN(CCc3c([nH]c4ccccc34)[C@@](C(=O)OC)(c3cc4c(cc3OC)N(C=O)[C@H]3[C@@](O)(C(=O)OC)[C@H](OC(C)=O)[C@]5(CC)C=CCN6CC[C@]43[C@@H]65)C2)C1` [vincristine] + O=C(O)c1ccc(-c2c[nH]c3ncc(-c4ccccc4)cc23)cc1C1CCCC1 [GSK650394] (first compound 0.0005 µM, partner dose 0.8 µM), the cell count in test [1] amounted to 76.5%; in test [2], 114%; in test [3], 94.4%.

For `CC[C@]1(O)C[C@H]2CN(CCc3c([nH]c4ccccc34)[C@@](C(=O)OC)(c3cc4c(cc3OC)N(C=O)[C@H]3[C@@](O)(C(=O)OC)[C@H](OC(C)=O)[C@]5(CC)C=CCN6CC[C@]43[C@@H]65)C2)C1` [vincristine] + CCCCCCCCc1ccc(CCC(N)(CO)CO)cc1 [fingolimod] (first compound 0.0005 µM, partner dose 10 µM), the cell count in test [1] amounted to 14.1%; in test [2], 12.3%; in test [3], 31.4%.

Consider `Cc1cc(Nc2cc(N3CCN(C)CC3)nc(Sc3ccc(NC(=O)C4CC4)cc3)n2)n[nH]1` [Tozasertib] + CC1(C)NC(=O)N(c2ccc([N+](=O)[O-])c(C(F)(F)F)c2)C1=O [nilutamide] (first compound 0.03 µM, partner dose 5 µM), for which the cell count in test [1] amounted to 90.4%; in test [2], 96.5%; in test [3], 101%.

`CC[C@]1(O)C[C@H]2CN(CCc3c([nH]c4ccccc34)[C@@](C(=O)OC)(c3cc4c(cc3OC)N(C=O)[C@H]3[C@@](O)(C(=O)OC)[C@H](OC(C)=O)[C@]5(CC)C=CCN6CC[C@]43[C@@H]65)C2)C1` [vincristine] + Cc1nc(Nc2ncc(C(=O)Nc3c(C)cccc3Cl)s2)cc(N2CCN(CCO)CC2)n1 [dasatanib] (first compound 0.0005 µM, partner dose 0.02 µM): the cell count in test [1] came out at 44.6%; in test [2] it was 26%; in test [3], 62.8%.

For `N#CC[C@H](C1CCCC1)n1cc(-c2ncnc3[nH]ccc23)cn1` [ruxolitinib] + C=C(c1ccc(C(=O)O)cc1)c1cc2c(cc1C)C(C)(C)CCC2(C)C [Bexarotene] (first compound 5 µM, partner dose 10 µM), the cell count in test [1] worked out at 78.3%; in test [2], 98%; in test [3] it was 129%.

Consider `CC[C@]1(O)C[C@H]2CN(CCc3c([nH]c4ccccc34)[C@@](C(=O)OC)(c3cc4c(cc3OC)N(C=O)[C@H]3[C@@](O)(C(=O)OC)[C@H](OC(C)=O)[C@]5(CC)C=CCN6CC[C@]43[C@@H]65)C2)C1` [vincristine] + O=C(Nc1cccc(Cl)c1)Nc1ncc(CCNc2ncnc3ccsc23)s1 [SNS314] (first compound 0.0005 µM, partner dose 0.004 µM), for which the cell count in test [1] is 45.9%; in test [2], 12%; in test [3] it was 87.1%.

As to `N#CC[C@H](C1CCCC1)n1cc(-c2ncnc3[nH]ccc23)cn1` [ruxolitinib] + CCN(CC)CCCCNc1ncc2cc(-c3cc(OC)cc(OC)c3)c(NC(=O)NC(C)(C)C)nc2n1 [PD173074] (first compound 5 µM, partner dose 0.5 µM), the results for the cell count in test [1], in test [2] and in test [3] were 131%, 85.2% and 142%, respectively.

On to `Cc1cc(Nc2cc(N3CCN(C)CC3)nc(Sc3ccc(NC(=O)C4CC4)cc3)n2)n[nH]1` [Tozasertib] + NC1(c2ccc(-c3nc4ccn5c(=O)[nH]nc5c4cc3-c3ccccc3)cc2)CCC1 [MK2206] (first compound 0.03 µM, partner dose 2 µM), for which the cell count in test [1] was found to be 76.7%; in test [2], 72.4%; in test [3], 96.1%.

For `CC[C@]1(O)C[C@H]2CN(CCc3c([nH]c4ccccc34)[C@@](C(=O)OC)(c3cc4c(cc3OC)N(C=O)[C@H]3[C@@](O)(C(=O)OC)[C@H](OC(C)=O)[C@]5(CC)C=CCN6CC[C@]43[C@@H]65)C2)C1` [vincristine] + CC1(C)CCC(c2ccc(Cl)cc2)=C(CN2CCN(c3ccc(C(=O)NS(=O)(=O)c4ccc(N[C@H](CCN5CCOCC5)CSc5ccccc5)c(S(=O)(=O)C(F)(F)F)c4)cc3)CC2)C1 [ABT263] (first compound 0.0005 µM, partner dose 2 µM), the cell count is 50.8% in test [1], 97.5% in test [2] and 66.8% in test [3].

Take `Cc1cc(Nc2cc(N3CCN(C)CC3)nc(Sc3ccc(NC(=O)C4CC4)cc3)n2)n[nH]1` [Tozasertib] + Cc1nc(Nc2ncc(C(=O)Nc3c(C)cccc3Cl)s2)cc(N2CCN(CCO)CC2)n1 [dasatanib] (first compound 0.03 µM, partner dose 0.02 µM): the cell count in test [1] stood at 68.2%; in test [2], 50.5%; in test [3] it was 48.7%.

For `CC[C@]1(O)C[C@H]2CN(CCc3c([nH]c4ccccc34)[C@@](C(=O)OC)(c3cc4c(cc3OC)N(C=O)[C@H]3[C@@](O)(C(=O)OC)[C@H](OC(C)=O)[C@]5(CC)C=CCN6CC[C@]43[C@@H]65)C2)C1` [vincristine] + CO[C@H]1C[C@@H]2CC[C@@H](C)[C@@](O)(O2)C(=O)C(=O)N2CCCC[C@H]2C(=O)O[C@H]([C@H](C)C[C@@H]2CC[C@@H](OCCO)[C@H](OC)C2)CC(=O)[C@H](C)/C=C(\C)[C@@H](O)[C@@H](OC)C(=O)[C@H](C)C[C@H](C)/C=C/C=C/C=C/1C [everolimus] (first compound 0.0005 µM, partner dose 0.1 µM), the cell count in test [1] was 62.9%; in test [2] it was 53.4%; in test [3] it was 96.7%.

`Cc1cc(Nc2cc(N3CCN(C)CC3)nc(Sc3ccc(NC(=O)C4CC4)cc3)n2)n[nH]1` [Tozasertib] + Cc1cc(Nc2cc(N3CCN(C)CC3)nc(/C=C/c3ccccc3)n2)n[nH]1 [ENMD2076] (first compound 0.03 µM, partner dose 0.2 µM): the cell count in test [1] was found to be 59.5%; in test [2], 63.2%; in test [3], 81.1%.

As to `CC[C@]1(O)C[C@H]2CN(CCc3c([nH]c4ccccc34)[C@@](C(=O)OC)(c3cc4c(cc3OC)N(C=O)[C@H]3[C@@](O)(C(=O)OC)[C@H](OC(C)=O)[C@]5(CC)C=CCN6CC[C@]43[C@@H]65)C2)C1` [vincristine] + Cc1cc(Nc2cc(N3CCN(C)CC3)nc(/C=C/c3ccccc3)n2)n[nH]1 [ENMD2076] (first compound 0.0005 µM, partner dose 0.2 µM), the cell count in test [1] was 57.6%; in test [2], 82.3%; in test [3], 89%.
